Measurements taken from paper PMC4336329 (PLoS ONE, 2015).
About 2,200 (0.71%) of roughly 310,000 compounds showed an effect of 50% or more. The effect is printed as a negative number. This is one part of the list.

The compounds below were run against human ether-à-go-go-related gene (hERG) potassium channel (human, UniProt Q12809) (assay: primary screen, population patch clamp on CHO cells stably expressing hERG).
human ether-à-go-go-related gene (hERG) potassium channel, sequence (Q12809 whole entry, looked up): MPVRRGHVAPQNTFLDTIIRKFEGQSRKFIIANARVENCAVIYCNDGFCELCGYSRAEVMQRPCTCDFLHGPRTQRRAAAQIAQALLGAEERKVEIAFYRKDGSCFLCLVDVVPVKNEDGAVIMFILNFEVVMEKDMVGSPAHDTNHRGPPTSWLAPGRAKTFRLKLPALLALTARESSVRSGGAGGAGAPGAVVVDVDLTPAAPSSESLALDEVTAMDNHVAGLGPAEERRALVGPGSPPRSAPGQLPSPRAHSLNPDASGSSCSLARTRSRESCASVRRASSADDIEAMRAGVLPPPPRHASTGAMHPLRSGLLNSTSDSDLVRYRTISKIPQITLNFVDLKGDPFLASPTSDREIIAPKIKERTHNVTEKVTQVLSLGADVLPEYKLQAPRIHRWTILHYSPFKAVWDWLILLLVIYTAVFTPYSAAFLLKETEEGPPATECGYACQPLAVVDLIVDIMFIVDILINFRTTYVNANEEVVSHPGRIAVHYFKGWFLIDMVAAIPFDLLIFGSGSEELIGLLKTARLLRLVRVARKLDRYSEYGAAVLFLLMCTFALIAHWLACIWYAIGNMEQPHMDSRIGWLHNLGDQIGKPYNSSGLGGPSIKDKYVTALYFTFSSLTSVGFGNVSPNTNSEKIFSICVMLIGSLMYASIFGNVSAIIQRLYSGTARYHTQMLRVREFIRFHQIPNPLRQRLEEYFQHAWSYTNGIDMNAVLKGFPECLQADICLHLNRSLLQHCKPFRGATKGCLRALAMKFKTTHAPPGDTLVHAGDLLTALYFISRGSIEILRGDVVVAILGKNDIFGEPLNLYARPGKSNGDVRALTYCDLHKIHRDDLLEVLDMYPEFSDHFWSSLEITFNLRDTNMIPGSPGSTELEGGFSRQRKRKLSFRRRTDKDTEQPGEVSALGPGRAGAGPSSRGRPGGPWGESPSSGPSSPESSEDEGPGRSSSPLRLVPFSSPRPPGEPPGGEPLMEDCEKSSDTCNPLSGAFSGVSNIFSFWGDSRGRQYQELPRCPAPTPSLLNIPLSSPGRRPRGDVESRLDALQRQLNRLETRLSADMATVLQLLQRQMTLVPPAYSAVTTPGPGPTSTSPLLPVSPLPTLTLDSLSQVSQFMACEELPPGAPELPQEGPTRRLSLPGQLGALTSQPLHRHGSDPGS

Going from `O=C(C1COc2ccccc2O1)N1CCN(c2ccccc2F)CC1` (centres unmarked) to `O=C1Nc2ccccc2C(O)(C(=O)NCc2ccc3c(c2)OCO3)N1c1ccccc1` (centres unmarked), the “hERG current change (%, negative = inhibition) at 1uM” value falls from 10.2% to 10.1%.

Going from `CCCNC(=O)c1cc(SC)ccc1Cl` to `COc1ccc(C(=O)NCCSc2ccccc2)cc1OC`, the “hERG current change (%, negative = inhibition) at 1uM” value rises from 3.96% to 4.42%.

Going from `CCOC(=O)C(=O)C1C(=O)Nc2ccccc21` (centres unmarked) to `Cc1ccccc1OCCC(=O)OCC(=O)Nc1ccc2[nH]c(=O)[nH]c2c1`, the “hERG current change (%, negative = inhibition) at 1uM” value falls from 15.6% to 10.2%.

Compared with `CS/C(=N/S(=O)(=O)c1ccc(C)cc1)c1ccccc1`, `COC(=O)c1nn(-c2ccccc2)c(Sc2ccccc2)c1/C=N/O` is higher in “hERG current change (%, negative = inhibition) at 1uM” value: 2.36% for the first, 10.6% for the second.

First: O=C(c1cc2n(n1)C(C(F)(F)F)CC(c1ccc(Cl)cc1)N2)N1CCCC1 (centres unmarked)
Second: CCCC1CCC(=NNC(=O)CNc2ccc(OC)cc2)CC1 (centres unmarked)
The “hERG current change (%, negative = inhibition) at 1uM” value of the first is lower: 8.26% for the first, 10.8% for the second.

Compared with `COc1cc(C)c(S(=O)(=O)N2CCOCC2)cc1C`, `COc1cc(C)c(NC(=O)COc2ccc3c(c2)OCO3)cc1C` is higher in “hERG current change (%, negative = inhibition) at 1uM” value: 13.5% for the first, 14.4% for the second.

Going from `COc1ccc(N=CC2=C(O)CC(C)(C)CC2=O)cc1OC` to `CC(C)(C)NC(=O)c1ccc2c(c1)C(=O)N(Cc1ccco1)C2=O`, the “hERG current change (%, negative = inhibition) at 1uM” value falls from 11.8% to 10.3%.

Compared with `O=C(COc1ccccc1)Nc1nc2ccccc2[nH]1`, `O=C(CSc1nc2ccccc2c(=O)[nH]1)Nc1cccc([N+](=O)[O-])c1` is lower in “hERG current change (%, negative = inhibition) at 1uM” value: 15.2% for the first, 12% for the second.

Going from `Cc1cccc(NC(=O)C2CC(=O)N(c3ccccc3)C2)c1C` (centres unmarked) to `CC(CC(=O)N(C)c1c(N)n(Cc2ccccc2)c(=O)[nH]c1=O)c1ccccc1` (centres unmarked), the “hERG current change (%, negative = inhibition) at 1uM” value falls from 9.76% to -8.15%.

Going from `COC(=O)C1=C(c2ccc(F)cc2F)C[C@@H]2CC[C@H]1N2C(=O)NCCOc1ccccc1` to `CN(Cc1cc(-c2ccccc2)on1)C(=O)c1cc(COc2c(F)cccc2F)on1`, the “hERG current change (%, negative = inhibition) at 1uM” value falls from 9.02% to 5.58%.

Compared with `C=CCOCCN1C(=O)C2C3C=CC(C2C1=O)C1C2C(=O)N(CCOCC=C)C(=O)C2C31` (centres unmarked), `CCOC(=O)c1[nH]c(C)c(CCC(=O)OC)c1C` is higher in “hERG current change (%, negative = inhibition) at 1uM” value: -13.4% for the first, 14% for the second.

Going from `Cc1cc(C)c(NC(=O)Nc2ccc3c(c2)OCO3)c(C)c1` to `Cc1cc(C)c(C#N)c(SCC(=O)NC2CC2)n1`, the “hERG current change (%, negative = inhibition) at 1uM” value falls from 9.38% to 6.56%.

Compared with `CN(C)CCc1c[nH]c2ccc(Cn3cncn3)cc12.O=C(O)c1ccccc1`, `NCCc1nc2ccccc2s1` is higher in “hERG current change (%, negative = inhibition) at 1uM” value: 0.541% for the first, 15.1% for the second.
